Source: the supplement of paper PMC9513381

How the values were obtained:
[1] = biological target: SARS-CoV-2 Wuhan-Hu-1 spike pseudovirus; test: pseudovirus neutralization IC50; higher = weaker neutralization
Method: (§1)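 Single-round luciferase reporter pseudovirus mixed with antibody dilutions and put on 293T-ACE2 cells for 48 h; signal relative to no-antibody wells, four-parameter fit.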

[2] = biological target: SARS-CoV-2 Wuhan-Hu-1 spike pseudovirus; test: pseudovirus neutralization IC90; higher = weaker neutralization
Method: as §1

[3] = biological target: SARS-CoV-2 Delta (B.1.617.2) spike RBD; test: ELISA binding EC50; higher = weaker binding; ELISA of recombinant human antibody on coated antigen, from 10 µg/ml in fourfold dilutions; four-parameter fit.
[4] = biological target: SARS-CoV-2 Omicron BA.1 spike protein; test: as above
[5] = biological target: SARS-CoV-2 Wuhan-Hu-1 spike receptor-binding domain; test: as above

Binder	pseudovirus neutralization IC50 [1] [µg/mL]	pseudovirus neutralization IC90 [2] [µg/mL]	ELISA binding EC50 [3] [µg/mL]	ELISA binding EC50 [4] [µg/mL]	ELISA binding EC50 [5] [µg/mL]
B2048 (protein) chain 1: QVQLVQSGAEVRKPGASVKVSCKTYGYTFTSYGFSWVRQAPGQGLEWMGWISVYNGNTIYAQKFQGRVTMTTDTSKSTSYMELKSLRSDDTAIYYCTRVLGIYFGADYWGQGTLVTVSS chain 2: NFMLTQPHSVSESPGKTVTVSCTRSSGSIASNYVLWYQQRPGSAPTTVIFEDDQRPSGVPGRFSGSIDSSSNSASLTISGLKTEDEADYYCQSYDGTNRSWVFGGGTKLTVL	0.0221	> 1	0.0182	0.0466	0.00515
B2037 (protein) chain 1: QVQLVQSGDEVKKPGSSVKVSCKTSGGTLTSYAISWVRQAPGQGLEWMGGIIPISGTPSYGEKFQGRVTITADKSTSTASMELTSLRYEDTAMYYCARETPAAVRFSERHPQGLGLYAMDVWGQGTTVTVSS chain 2: SYELTQPPSVSVAPGQTARISCGGDNIGSKNVHWYQQKPGQAPILVVFDDSDRPSGIPERFSGSNSGNTATLTISRVEAGDEADYSCQVWDSISARPSWVFGGGTKLTVL	> 1	> 1	0.0185	0.0389	0.00244
B2036 (protein) chain 1: QVQLVQSGAEVKKPGASVKVSCKVSGYTFINYGISWVRQAPGQGLEWMGWISAYDGYTNYAQKFQGRVTMTTDTSTSTAYMDLRSLRSDDTAIYYCARDPGATDYYESTAFELDYWGQGSLVTVSS chain 2: SYELTQPSSVSVSPGQTARITCSGDLLAKKYARWFQQKPGQAPVLVIYRDKERPSEIPERFSGSSSGTTVTLTISGAQVDDEADYYCYCAAAENNKVFGGGTKLTVL	> 1	> 1	0.0269	0.0427	0.00636
B2044 (protein) chain 1: QLVQSGPEVKKPGTSVKVSCRSSGFTFFSISAVQWVRQARGQRLEWIGWIVIGSGNTDYAQNFQGRVSLTGDLSTSTAYMELSSLRSDDTAVYYCAAPDCSRTTCLDGFDIWGQGTMVTVSS chain 2: EIVLTQSPGTLSLSPGERATLSCRASQSVSRSYLAWYKQKPGQAPRLLIYAASSRATGIPDRFSGSGSGTDFTLTIRRLEPEDFAVYYCQQYGSSPWTFGQGTKVEIK	0.00486	0.0193	0.00365	0.00157	0.00251
B2043 (protein) chain 1: QVQLVQSGAEVKKPGSSVKVSCKASGGTLSSTAISWVRQAPGQGPEWMGRIIPIFGTTDYAPNFQGRVSITADESTTTVYMELSSLTFQDSALYYCARDHEVAPLYGMDVWGQGTTVTVSS chain 2: DIQMTQSPSSLSASVGDRVTITCRASQSISRFLNWYQQKPGKAPELLIYGTSTLQDGVPPRFSGSGSGTDFTLTISSLQPEDFATYYCQQSYSIPPITFGQGTRLDIK	0.0891	> 1	0.00468	0.00243	0.00315
B2038 (protein) chain 1: QVQLVQSGSEVKKPGASVKVSCKASGYTFTSYTIHWVRQAPGQGLEWMGVINPSGGSSTYAQRFHARVNMTRDMSTTTVYMDLNSLRSEDTAVYFCARVCSTVNCPPRATDGLDVWGQGTTVTVSS chain 2: DIQMTQSPSSLSASVGDRVTITCRASQSINFFLNWYQQKPGKAPKLLIYAASSLDRGVPSRFGGSGSGTDFTLTINSLQPEDFATYYCQQSYTPSITFGQGTRLEIK	0.00209	0.0193	0.0211	0.00246	0.00157
B2047 (protein) chain 1: QVQLVQSGTEVKKPGSSVKVSCKTSGGIFSSYGSYGISWVRQAPGQGLEWMGGIIPIFGSTTFAQQFQGRVTITADESTTTVYMELSSLRSDDTAFYYCASGPSTYHDFWSGYSFDYWGQGTLVTVSS chain 2: EIVLTQSPGTLSLSPGERATLSCRASQSVSSTHLAWYQQRPGQAPRLLIHGASTRATGISERFSGSGSGTDFTLTISRLEPEDFAVYYCQQYGNSPFTFGPGTKVDIK	> 1	> 1	0.00863	0.00407	0.00309
B2034 (protein) chain 1: QVQLVQSGPEVKKPGSSVKVSCKAPGGTASTYAIIWVRQAPGQGLEWMGGIIPLFGATRYTQRFQGRVTITADKSTTTAYMELSSLTSEDTAVYYCARVKRLWHESVARYYFDYWGQGTLVTVSS chain 2: DIQMTQSPSSLSASVGDRVTITCQASQDISNYLNWYQQKPGKAPKLLIYDASNVETGVPSRFSGSGSGTDFTFTISSLQPEDIATYYCQQFDNLPVVTFGGGTKVEIK	0.00439	0.0316	> 1	0.00342	0.00245
B2039 (protein) chain 1: EVQLVESGGGLIQPGGSLRLSCAASGFTVSSNYMSWVRQAPGKGLEWVSLIYPGGSTFYADSMKGRFTISRDNSKNTLYLQMNSLRAEDTAVYYCARVVGPTGTDAFDVWGQGTMVTVSS chain 2: DIQMTQSPSSLSASVGDRVTITCQASQDISNSLNWYQQKPGKAPKLLIYDASNLQTGVPSRFSGSGSGTDFTFTISSLQPEDIATYYCQQFDNLPSFTFGPGTKVDIK	0.00998	0.131	0.0152	0.00985	0.00126
B2035 (protein) chain 1: QVQLVQSGAEVKKPGSSVKVSCKASGGALSTYGISWVRQAPGKGLEWVGGIVPVLKRTNYAQKFQGRVTITADESTNTAYMELRSLRSEDTALYYCARCLNMGFCSGGSCFDYCDYWGQGTLVTVSS chain 2: QSVLTQPASVSGSPGQSITISCTGTSSDVGGYNYVSWYQQHPGKAPKLIIFDVTDRPSGVSNRFSGSKSGNTASLTISGLQAEDEADYYCSSYTSSYTLVVFGGGTHLTVL	0.0172	0.361	0.0427	0.00472	0.00252
B2046 (protein) chain 1: QVQLVQSGAEVKKPGSSVKVSCKASGGAFSIYAISWVRQAPGQGLEWVGEIIPMSGTPKSAPKFQGRVTITADESTTTAYMELSSLRSEDTAFYYCARHFRDCRETSCLYYFDSWGQGTLVTVSS chain 2: DIQLTQSPSSLSASVGDRVTITCRATHNIVNYLNWYQQKVGNAPKLLIYAASTLQSGVPSRFSGSGSGTEFTLTISSLQPEDFATYYCQQSHSAPRTFGQGTKVEIK	0.0206	0.107	0.00388	> 1	0.00435
B2041 (protein) chain 1: EVQLVESGGNLIQPGGSLRLSCAASGFIVSNSYMSWVRQAPGKGLEWVSVIYSGDSTFYADSVKGRFTISRDNSRNTMYLQMNSLRAEDTAVYYCARLGGIQLHDGGFDYWGQGTLVTVSS chain 2: QSALTQPPSASGSPGQSVTISCTGTSSDVGGYNYVSWYQQHPGKAPKFLIYEVSKRPSGVPGRFSGSKSGNTASLTVSGLQAEDEAYYHCSSYAGSHLWVFGGGTKLTVL	0.00453	0.0219	> 1	> 1	0.00196
B2042 (protein) chain 1: EVQLVESGGGLVQPGGSLRLSCAASGFTFSDYDMHWVRQSTEKRLEWVSTIGTSGDTYYPDSVKGRFTISRENAKNSLYLQMNSLSAGDTAVYYCARGGNHDSWSAYYSRLPTWYFDLWGHGTLVTVSS chain 2: DIQLTQSPSSLSASVGDRVTITCRASQTIRNNLIWYQQKPGKAPKLLIYDASILQSGVPSRFSGSGSGTDFTLTISSLQPEDFATYYCQQSYTMPPITFGQGTRLEIK	> 1	> 1	0.0165	0.0357	0.00257
B2049 (protein) chain 1: QVQLVQSRPEAKKPGASVRVSCQASGYTFTTYGIHWVRQAPGQGLEWLGRVSSSNGNPIYAPRFRGRLTMTTDASTSTASMELRSLRSDDTAVYYCARDPTVVAPRDFFDYWGQGTLVTVSS chain 2: SYELTQPPSVSVAPGQTARITCGGDNIGSKNVHWYQQKPGQAPVLVVFEDSDRPSRIPDRFSGSNSGNTATLTISRVEAGDEADYYCQVWDSSSDPYVFGSGTRVTVL	> 1	> 1	0.0102	0.00953	0.00171

Recombinant human monoclonal antibodies (heavy:light variable regions). ELISA EC50 on the named antigen, from 10 µg/ml down; IC50 / IC90 against spike pseudovirus on 293T-ACE2 cells, 48 h; lower = stronger. Calls: IC50 above 1,000 ng/ml = non-neutralizing; EC50 above 1,000 ng/ml = non-binder. The source prints 1000 for neutralization that was not reached; it is given as >1000 ng/ml. Only binders of the Wuhan-Hu-1 domain have neutralization values.
